This is one part of the list.
System: PF3D7_0420300 AP2 domain 1 (GST-tagged)
Test: gcPBM binding intensity (ln(normalized median fluorescence intensity)); higher = stronger DNA binding
In short: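 After 1 h on an Agilent 4 × 180k array of primer-extended double-stranded 36-bp intergenic genomic probes and negative controls, bound GST-tagged P. falciparum DNA-binding domains were detected with Alexa488 anti-GST antibody and scanned at 488 nm. The domains had been expressed in E. coli, and binding took place in 1× PBS with 1% milk, 0.2 mg/ml BSA, 0.5% salmon testes DNA and 0.03% Triton X-100. Binding intensity is the highest Masliner-normalised natural-log median intensity across replicate spots of either probe orientation.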

Sequence | gcPBM binding intensity (ln)
GAATATAAACATATTACACACATCTATAGGTACATT [CACACA_site6983] | 9.7
AAAGTAAAAATATACTGTACAAATTTTTTCCCCTCT [XGTACX_site171] | 9.29
AAAGAAAGCACATACACACACAAAAAAAAAAAAGAA [CACACA_site776] | 10.1
ATTTTTTAAAAAGTAACACACACTCTTATAAATAAC [CACACA_site7668] | 9.56
ATATTTATATACAAATGTACGCATATAATATATATA [XGTACX_site1232] | 9.18
GATGCACTTTAAAAATGTACTTATACCTTTAATTGT [XGTACX_site6395] | 9.21
AAACAAAAAAAAAAAAAAAAAAAAAAAAAAAAAAAA [GTGCAC_negctrl_site254] | 8.6
AGAGATTATAAAATATGTACTAAATATTAAATCTTA [XGTACX_site7050] | 9.1
AAAAAAATATTATAATATATATATATATATATATAT [GTGCAC_negctrl_site399] | 8.88
TTATTATTATATGAATGTACTTAAAAATACATTTTG [XGTACX_site2959] | 8.98
ATTCTATATACACGCACACACACTTATATATATATA [CACACA_site3322] | 10.1
CCCTTTTCTAAATATTGTACGTATAAATTATATTAC [XGTACX_site7676] | 9.2
GTACAGATAAATATTACACACATTTTCATTTTTAAC [CACACA_site5140] | 9.55
AAAAAGAAAAAACGAAGTACAATTATAAGATTATAT [XGTACX_site410] | 9.53
TTGTTCTTTTTTTTTTTATTTTTTAATTTGAAAAGA [CACACA_negctrl_site209] | 9.12
TATGAAAAATATCTTTGTACTTAGAAATATATACAC [XGTACX_site5393] | 9.13
TATGTGCCAAGACACACACACATATTTATATTTATA [CACACA_site6360] | 9.64
GTGATTTAATTGTGTTGTACATATTTATAAATAAAA [XGTACX_site8966] | 9.17
AAAAAAAAAAGAAACACACACATTTGTATTTAATAT [CACACA_site5184] | 9.78
TTCCATATAATTACATGTACACATTTTGAATAATAT [XGTACX_site3692] | 9.37
AGCACAGACGGACACACACACATATATATATATATA [CACACA_site4341] | 9.88
ATATATATGTATGTATGTACATATTTGAATTTATTT [XGTACX_site8470] | 9.19
ACAGATATACATAAAAAAAAAATAATTTTACATATA [CACACA_negctrl_site929] | 9.15

Sequence | gcPBM binding intensity (ln)
TTATAAATTATAGGTACACACAAAAAAAAAAAGAAA [CACACA_site1327] | 9.71
ATTTGTTACACTAAATGTACATACATACATATATAT [XGTACX_site6175] | 9.38
ATAAACATATCAATATGTACATATTTTTGTTTGTAT [XGTACX_site7018] | 9.34
ATTTATCAATAAAATGCACACACTGTAATATTATTA [CACACA_site3976] | 9.55
AAACCACAAAATTTTTTATATATGACCAATACATAG [CACACA_negctrl_site277] | 9.28
TTATAATAGTTAAATGTACACACTAACTACATGGAA [CACACA_site9070] | 9.27
ATATATATACATACATACCTATGTATATGTGTAATT [GTGCAC_negctrl_site50] | 9.24
ATGGTAGTGATTAAAAGTACACGTAATTGTAAAAAT [XGTACX_site387] | 9.45
TAAACAACTTATAAATGTACACATATTTTAATTACC [XGTACX_site5409] | 9.35
TAAGTGCATGAGATATGTACATATATAAAATATATA [XGTACX_site3294] | 9.18
AATAAAAACTAAACATGTACGCACATATATATATAT [XGTACX_site8096] | 9.43
TAAAAAAAAAAAAATACACACACACCGATATATATA [CACACA_site8498] | 10.2
TCATAGTCTTAATGACTACACACCTAACTATGCATG [CACACA_site1839] | 9.3
GTATATATTCATATGGAAAATAAAGGAGAAAACAAG [TGCATGCA_negctrl_site220] | 9.55
ATGTATGTATAATATACACACTCACAAGCATTCAAA [CACACA_site4306] | 9.43
TTTGTTTTTTCTTTTTGTACATATACAAGATACGTA [XGTACX_site2309] | 9.12
TTTTGTAATTCTCTTCATATAATTTATATATATATA [CACACA_negctrl_site1825] | 9.19
GTGTTTTTTTTAGATTGTACATATATATATATATAT [XGTACX_site4562] | 9.63
ACCCAACATATGTGTACACAGAAAATAAATATAATA [CACACA_site5901] | 9.4
AGATATTTTATAATTACACACATGAGGTTATTTGAA [CACACA_site1999] | 9.51
TTATAAAAATAATATCGTACAAATGACATAGATGAA [XGTACX_site2570] | 9.37
CATATACATAAACACACACACACATAAATAAATATA [CACACA_site4864] | 10.2
TATTATTTTTTAAATTGTACAATAAATTATAAAAGG [XGTACX_site1162] | 8.97

Sequence | gcPBM binding intensity (ln)
GAAAAGCAGATAAATGTGCACATATATGTTTGTATA | 9.31
TATAGGTATATATAAGTGCAATATATATGTATATAC [GTGCAC_site9427] | 9.5
ACATAAAATTGTTAAAAAATTGTATAAATAATACAT [XGTACX_negctrl_site557] | 9.14
CAGCTCTTAAAAATTACACACATATACTCATATATA [CACACA_site5757] | 9.46
TTTTTTTCTTTATTAGCACACATAATATTATATATG [CACACA_site8841] | 9.42
TATATCATTATATAAACACACAATATGTTTTTTATA [CACACA_site3781] | 9.13
TATTAATCTAATTCATAAAAAATGATCTATTTTGTT [CACACA_negctrl_site1035] | 8.86
AAAATGAACAGACACACACACATATTTATATTTATA [CACACA_site7182] | 9.9
ACCTAAAAGGTATAATATATAAATAAAAAAAAAAAT [CACACA_negctrl_site134] | 9.3
AACATTTGATAAGATACACACACAAGGAAAAAAATA [CACACA_site8004] | 10
TAGAATAATCTATAAACACACAAACACAACAAAAGA [CACACA_site7861] | 10
ACATAAATTTAATACACACACAAAGAAAAAAAAAAA [CACACA_site4088] | 10.1
TAATATAATATATATACACACAAGAAATACAAAACG [CACACA_site1378] | 10.1
ATATTATTATAATATACATATATATATATAATATAT [CACACA_negctrl_site480] | 9.01
TATATATATAATTAAAGTACATATAACCACAAAAAT [XGTACX_site7289] | 9.61
GGTCTTTTCAACACACGTACATAAAAATATTATACA [XGTACX_site5360] | 9.47
TATATATTGATATGCACACCTATGTATTGATGTATA [CACACA_site1073] | 9.42
TAAACATATAGAGGGGTGCAAAGAATTGTAAAATTT | 9.52
AATAATAATAAATATACACACATCATACAATTAACA [CACACA_site3679] | 9.85
TATTTTTTTCTTACTACACACATATAGATGCTTTCC [CACACA_site7825] | 9.57
AAAAAAAATAAAAATAAAAATAAAAATAAAAATAAA [GTGCAC_negctrl_site437] | 8.9
TATCATTTTGTATATAGTACATATATAAAATCGTTA [XGTACX_site3875] | 8.98
ATAAAAATAACATATAAACACACATATATATATATA [CACACA_site9267] | 9.35

Sequence | gcPBM binding intensity (ln)
CAAGCACCCAGACACACACACACACCCACACCCACA [CACACA_site369] | 10.2
GGAATATTTATACATACACACATATATTTATTTATA [CACACA_site6883] | 9.53
AGTCATTAAATATAATGTACATGGAAAAACAGCTGA [XGTACX_site7944] | 9.42
ATGTAGACATAATGGGGTACAAAAAAAAAAAAAAAA [XGTACX_site881] | 9
AATAATTGTTAAAGGTGTACAATACGTATGTAAGAA [XGTACX_site1328] | 9.53
AACAGATATATATGTAGTACATGTTCTAGATATTTT [XGTACX_site1208] | 9.21
AATATAAACATAGATAGATAAATAAATAAATAAACA [GTGCAC_negctrl_site567] | 9.43
GACAAATTATTGTGTACACAATATTATTATATATAC [CACACA_site6020] | 9.44
ACAAATAAAAATATTACACACACTATTCTAGTGATA [CACACA_site6812] | 9.46
TAAATATATATAATTACACACTTTTCTATAATATGA [CACACA_site711] | 9.26
CTTATGTTTTTTAAGTGTACATATTATACGTATTAT [XGTACX_site1176] | 9.45
TTAAGATATATAAAGAGTACACATAAGAGTAATGCT [XGTACX_site58] | 9.38
TATAATACATTATATTGTACTATATTATAATAAATT [XGTACX_site5934] | 9.15
ATATTACCCATATATGCACACATTGTAGTTATTTAT [CACACA_site2636] | 9.89
ATATAATTACCATATGGTACACACATATATATATGT [XGTACX_site7393] | 9.72
TTTTGTAGCAAAAAATAGGAAAAAAAAAAATTAAAT [GTGCAC_negctrl_site8] | 9.13
TTAAGATACAAAAAAGTGCATATTTTTTAACAAAAA | 9.09
CACATACCCATACAAACACACATTATATATATATAT [CACACA_site4965] | 9.6
AAAAAAAAAAAAAAAACACACATAAATAGCTCAAAT [CACACA_site3973] | 9.64
GATATATAAATAGATACACACATACATACATACATA [CACACA_site6260] | 9.73

Source: the supplement of paper PMC11417369
